Laboratory results published in PubChem BioAssay AID2147 (National Center for Advancing Translational Sciences (NCATS), 2009).
Hit rate of the full screen: of about 230,000 compounds, about 3,600 (1.6%) were called active. Inconclusive results, whose numbers are uncertain, are shown with a selection of clear calls. The call rests on the fitted dose curve; in most records, active means well fitted inhibition curve with a large enough effect (not every such curve was filed as active); inconclusive means small, poorly fitted or top-dose-only effect, or another doubt; inactive means no such curve, though single readings can be large or run the other way. A potency beside an inconclusive call is a rough fit, not a confirmed value.

biological target: Lysine-specific demethylase 4E (Homo sapiens) (UniProt B2RXH2); experiment: qHTS Assay for Inhibitors of Human Jumonji Domain Containing 2E (JMJD2E); conditions: JMJD2E catalytic domain, FDH-coupled NADH fluorescence (FDH is formaldehyde dehydrogenase); series mostly up to 57.1 µM
UniProt B2RXH2, sequence (B2RXH2 whole entry, looked up, the tested form may be a part): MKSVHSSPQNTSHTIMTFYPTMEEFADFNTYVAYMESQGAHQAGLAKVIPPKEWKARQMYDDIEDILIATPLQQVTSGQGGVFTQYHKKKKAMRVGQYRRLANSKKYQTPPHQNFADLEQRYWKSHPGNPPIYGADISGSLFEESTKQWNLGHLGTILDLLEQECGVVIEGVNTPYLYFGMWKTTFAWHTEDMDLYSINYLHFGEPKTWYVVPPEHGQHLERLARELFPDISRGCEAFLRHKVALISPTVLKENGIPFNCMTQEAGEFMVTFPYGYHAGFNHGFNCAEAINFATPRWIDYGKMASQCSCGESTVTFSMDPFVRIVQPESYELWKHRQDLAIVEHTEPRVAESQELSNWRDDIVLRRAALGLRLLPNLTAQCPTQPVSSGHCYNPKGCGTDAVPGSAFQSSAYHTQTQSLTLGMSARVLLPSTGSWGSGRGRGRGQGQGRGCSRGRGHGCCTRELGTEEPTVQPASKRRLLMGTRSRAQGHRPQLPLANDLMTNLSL
Excerpt: Assay Provider: Structural Genomics Consortium [SGC] Screening Center PI: Austin, C.P. Screening Center: NIH Chemical Genomics Center [NCGC] The fine interplay among methylation states of several lysine residues on the tails of histone proteins is a major determinant of the transcriptional state of the associated DNA coding regions and is commonly referred to as the histone code. Histone lysine demethylases catalyze the removal of methyl groups from methylated lysine sidechains on histones H3 and H4, thus antagonizing the reactions catalyzed by histone lysine methyltransferases. […] In search for novel inhibitors of JMJD2E demethylase, a member of the largest set of histone demethylases belonging to the Fe(II) and 2-oxoglutarate oxygenase (2OG) superfamily, we performed a quantitative high-throughput screen (Inglese 2006) by using an assay which utilizes a trimethylated peptide substrate corresponding to a fragment of histone H3 (sequence ARKme3STGGK) with detection of the formaldehyde co-product in real time by a formaldehyde dehydrogenase (FDH) coupled reaction. FDH catalyzes oxidation of formaldehyde to formic acid with the concomitant reduction of the non-fluorescent beta-nicotinamide adenine dinucleotide hydrate (NAD+) cofactor to the fluorescent NADH co-product. References: Inglese, J., Auld, D., Jadhav, A., Johnson, R., Simeonov, A., Yasgar, A., Zheng, W. and Austin, C. Proc Natl Acad Sci USA 2006, 103, 11473-11478. N. R. Rose, S. S. Ng, J. Mecinovic, B. M. Lienard, S. H. Bello, Z. Sun, M. A. McDonough, U. Oppermann and C. J. Schofield, J Med Chem, 2008, 51, 7053-7056. Sakurai, M., Rose, N., Schultz, L., Quinn, A., Jadhav, A., Ng, S., Oppermann, U., Schofield, C.J. and Simeonov, A. Mol BioSystems 2009, in press. S. Michael, D. Auld, C. Klumpp, A. Jadhav, W. Zheng, N. Thorne, C. Austin, J. Inglese and A. Simeonov, Assay Drug Dev Technol, 2008, 6, 637-657.
Reagents and Controls: Ferrous ammonium sulfate, (+)-sodium L-ascorbate, beta-nicotinamide adenine dinucleotide hydrate (NAD+), Tween-20, formaldehyde dehydrogenase from P. putida (FDH), and disodium 2-oxoglutarate were from Sigma (St. Louis, MO). Black solid-bottom 384-well or 1,536-well assay plates were from Greiner Bio-One (Monroe, NC). Enzyme was supplied by Prof. Udo Oppermann, SGC-Oxford. The catalytic domain of human JMJD2E (residues 1-337) was produced as an N-terminally His6-tagged protein in E. coli, and purified by Ni-affinity chromatography and size-exclusion chromatography, and stored in HEPES 50 mM/ NaCl 500 mM pH 7.5, as reported in Rose 2008. The trimethylated histone peptide substrate ARK(me3)STGGK was synthesized and HPLC-purified by the Tufts University Core Facility (Boston, MA). Substrate solution (Sakurai 2009) contained 50 uM ARK(me3)STGGK, 0.00025 U/uL FDH, 50 uM 2-oxoglutarate, 250 uM NAD+, 1 mM ascorbate, and 10 uM ferrous ammonium sulfate. Controls and plate map: Buffer (150 mM HEPES pH 7.5 containing 0.01% Tween-20) in columns 3 and 4 as negative control (no enzyme) and 100 nM JMJD2E final concentration in columns 1,2, and 5-48. Assay Steps: Enzyme and buffer solutions (3 uL) were dispensed into a 1,536-well Greiner black solid-bottom assay plate. The library compounds (23 nL) were transferred using a Kalypsys pintool equipped with 1,536-pin array. The plate was incubated at room temperature (15 min), and then a 1 uL aliquot of substrate solution was added to initiate the reaction. The plate was transferred to ViewLux imager where an initial reading using standard UV optics (Ex 340 nm, Em 450 nm) was obtained. The plate was then removed from the reader, incubated for 30 minutes at room temperature, and returned to the reader for a second fluorescence reading. A fully automated robotic screening system (Kalypsys Inc, San diego, CA) was used to perform the above steps as described previously (Michael 2008). […]
Further: nearly all actives have a fitted effect of over 50% in size.
Potency means the concentration at half of the fitted maximal effect; tags describe the fitted curve by direction and shape.

SMILES	Potency
O=C1c2ccccc2NC(c2cccnc2)N1c1ccccc1F (configuration not stated)	inconclusive: 28.2 µM [inhibitor, partial curve]
COc1ccc(C(=O)CSc2nnnn2C)c(OC)c1	inconclusive: 31.6 µM [inhibitor, partial curve]
COC(=O)c1c(NC(=O)COC(=O)CNC(=O)c2ccco2)sc(C)c1C	inactive
CCCN(C(=O)CCl)C1=CCCCC1	inactive
CC(=O)c1cccc(NC(=O)N2CCC(c3nnc(SCC(N)=O)n3C)CC2)c1	inactive
COc1ccc2[nH]c(=O)c(CN(C(=O)c3cccnc3)c3ccc(C)cc3)cc2c1	inconclusive: 31.6 µM [inhibitor, partial curve]
O=S1(=O)CCC(NC(=S)N2CCOCC2)C1 (configuration not stated)	inactive
O=C(NNC(=S)NC(=O)c1cn(-c2ccccc2)nc1-c1ccccc1)c1ccncc1	active: 14.1 µM
Cc1nccn1Cc1cccc2ccccc12	inactive
Cc1nn2c(NCc3ccccn3)c3c(nc2c1-c1ccccc1)CCC3	inconclusive: 31.6 µM [inhibitor, partial curve]
CC(C)(C)OC(=O)N1CCN(C(=O)c2cccnc2Cl)CC1	inactive
COc1ccccc1-c1nnc(SCC(=O)Nc2c(Cl)cccc2Cl)o1	inactive
Cc1ccc2oc(-c3ccc(NC(=O)CC(C)C)cc3)nc2c1	inconclusive: 7.94 µM [inhibitor, partial curve]
CN(C)S(=O)(=O)c1cccc(NC(=O)CN2C(=O)NC(Cc3c[nH]c4ccccc34)C2=O)c1 (configuration not stated)	inactive
COc1ccc(CC(=S)N2CCOCC2)cc1OC	inactive
CN(C)S(=O)(=O)c1ccc(Cl)c(NC(=O)COC(=O)c2cc(-c3ccccc3)nc3ccccc23)c1	inconclusive: 25.1 µM [inhibitor, partial curve]
Cc1nnc(N2C(=O)c3cccc4cccc(c34)C2=O)s1	inconclusive: 28.2 µM [inhibitor, partial curve]
CC(C)N(Cc1ccccc1)C(=S)Nc1ccccc1F	inactive
COc1ccc2c(c1)O[C@@H](c1cccc(C(F)(F)F)c1)[C@H](OC(=O)NS(=O)(=O)c1ccc(C)cc1)C2=O	inconclusive: 39.8 µM [inhibitor, single point]

SMILES	Potency
Cc1ccc(/C=C/c2ccc(=O)n(Cc3ccccc3Cl)n2)cc1	inconclusive: 28.2 µM [inhibitor, partial curve]
O=c1[nH]c(=S)[nH]nc1Cc1ccccc1	inactive
COC(=O)Cc1c(C)c2ccc(OCC(=O)N3CCOCC3)cc2oc1=O	inconclusive: 31.6 µM [inhibitor, partial curve]
CCOC(=O)c1ccc(NC(=O)c2cccc(S(=O)(=O)N3c4ccccc4CC3C)c2)s1 (configuration not stated)	inconclusive: 28.2 µM [inhibitor, single point]
Cc1cc(C)nc(N2CCCC(C(=O)Nc3cc(F)ccc3C)C2)n1 (configuration not stated)	inconclusive: 39.8 µM [inhibitor, single point]
Oc1ccc(-c2nc3ccccn3c2NCc2ccco2)cc1	inconclusive: 25.1 µM [inhibitor, partial curve]
COc1ccc(C(=O)Cn2c(=O)c(CCC(=O)O)nn3c4ccccc4nc23)cc1OC	inconclusive: 28.2 µM [inhibitor, partial curve]
CCc1ccc2c(-c3cccc(Cl)c3)nc(=O)n(CC)c2n1	inconclusive: 31.6 µM [inhibitor, partial curve]
Cc1nc(SCc2cccc(F)c2)[nH]c(=O)c1C#N	active: 28.2 µM
CCn1c(SCc2ccccc2)nnc1-c1ccc(S(=O)(=O)N2CCCCC2)cc1	inconclusive: 25.1 µM [inhibitor, single point]
O=C(CSc1nc2ccccc2c(=O)[nH]1)c1ccc(O)c(O)c1	active: 25.1 µM
COc1ccc(OC)c(/C=N/Nc2cc(C)nc(N3CCOCC3)n2)c1	inconclusive: 35.5 µM [inhibitor, single point]
c1ccc2nc(-c3nc4ccccc4[nH]3)ccc2c1	inconclusive: 31.6 µM [inhibitor, partial curve]
CCSc1nc2c(c(=O)[nH]c(=O)n2C)n1CC(O)COc1ccccc1C (configuration not stated)	inactive
CC[C@H](CO)NCCN[C@@H](CC)CO	inactive
CCOc1cc(-c2nc3ccccc3s2)ccc1O	inconclusive: 25.1 µM [inhibitor, partial curve]
O=C(CCc1ccccc1)c1nnc(-c2ccccc2)o1	inactive
CCOC(=O)CNC(=O)c1cc(C)oc1C	inactive
